# Data reported in the supplement of paper PMC4466236.
# Over roughly 33,000 sequences, “E-score (dimensionless, -0.5 to 0.5)” has its median near -0.058; the highest 2% begin near 0.35. This is one part of the list.
# Tested on: MvaT
# Assay: PBM 8-mer E-score (mean of HK and ME arrays) (E-score (dimensionless, -0.5 to 0.5)); higher = stronger relative binding preference; most listed sequences are background and not binding sites
# In short: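 Reported values are rank-based E-scores, taken as the mean of two universal arrays and parsed with a custom script. Each 8-mer score falls between -0.5 and 0.5. The arrays, ME and HK, were double-stranded 60-mers with a constant 25-mer primer region and a variable 35-mer region covering all 8-mers. They were probed, by an earlier protocol, with full-length P. aeruginosa MvaT carrying an N-terminal glutathione S-transferase fusion.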
row,Sequence,PBM 8-mer E-score
1,CTAACCTA,-0.00243
2,GAATCGAC,-0.122
3,GAGACTGA,-0.127
4,AATTACCA,0.273
5,AAGCTTCC,-0.0554
6,GGGCAGGA,-0.333
7,ATTATGTC,0.305
8,GCTCACCA,-0.236
9,TGTAGCAA,0.2
10,CTGTAGCC,-0.199
11,ACCCTGCA,-0.116
12,CAACATGG,-0.0392
13,ATGGCACG,0.0112
14,AACGATTA,0.154
15,ATCGGCGA,-0.195
16,ATACGTAT,0.217
17,ATAGATTC,0.169
18,GCTCCCCA,-0.272
19,CTTGGGCA,-0.176
20,AAAAGTGT,0.17
21,GGGACGTA,-0.102
22,GCGTAGCA,-0.179
23,TAACCCTA,-0.0932
24,ACCGCCGT,-0.106
25,CATGCATG,-0.103

row,Sequence,PBM 8-mer E-score
1,AGTGGCCA,-0.169
2,AACTCATT,0.11
3,TAGTTTAA,0.398
4,GACCGGGC,-0.319
5,CGAGACTC,-0.0802
6,GAGGTCGC,-0.197
7,CTAAGTAG,0.0522
8,AGTACCGG,-0.0846
9,AGAATACC,-0.106
10,CTAGAGGA,-0.093
11,GTAGTCAC,-0.034
12,AGAGCTAG,-0.115
13,GCCTGCAA,-0.153
14,AGTGTAGC,-0.0909
15,ACTTCGAT,0.141
16,CGCTACTC,-0.204
17,AAGGGGTG,-0.237
18,AAAGAATC,0.124
19,GATCTGCC,-0.187
20,ATACGATC,0.0457
21,CCGTTCCC,-0.148
22,ACAGCAAT,0.0951
23,GAGCAGCA,-0.148
24,AGCATGGG,-0.0178
25,GAATGAGA,-0.156

row,Sequence,PBM 8-mer E-score
1,TTGCGAAA,0.126
2,AAGTTTCC,0.173
3,AAGCAAGC,-0.177
4,AGTGAGCG,-0.153
5,GTAAATAC,0.228
6,GGAGTGCA,-0.125
7,AATGTGCA,0.0599
8,GAAAAGTA,0.203
9,GCGATGAA,0.00423
10,CTTCAAAC,0.147
11,AGCTAGTA,0.152
12,AACACGGT,-0.238
13,GAGGAGGC,-0.355
14,CTGAAACA,-0.0424
15,ATGGTAGA,0.071
16,AGTATTTA,0.33
17,AGCTAGCT,-0.268
18,CTAACGGA,-0.0407
19,GGAACATA,0.00642
20,CTTTCTTC,0.132
21,CGATGTAG,-0.119
22,AACAAATT,0.228
23,AGGATACG,-0.0147
24,AGAAATAC,0.157
25,CCTCGCGA,-0.2

row,Sequence,PBM 8-mer E-score
1,AGGCGGTC,-0.288
2,CGATGAAC,-0.281
3,ACAAGTGG,-0.00133
4,ATCCGTAC,0.067
5,ACATGCAA,0.136
6,GACAATCA,-0.0576
7,CTTAAACC,0.214
8,GGACCACC,-0.282
9,GGCCCACA,-0.145
10,CACGTGGC,-0.0383
11,CCTGTTTA,0.0399
12,CGAGTAAG,-0.0397
13,CTGTTCTA,0.0426
14,ACGCATAG,-0.152
15,CTCGGAAC,-0.0872
16,ATCGTGTA,0.124
17,TGTAGACA,-0.0847
18,CATGATAA,0.217
19,CGGCTCAG,-0.327
20,CAGTCGCA,-0.0418
21,ACGCATCT,-0.113
22,GCATGTCC,-0.142
23,ACCGAATC,-0.0498
24,CTGCCACC,-0.166
25,ACAAGCGC,-0.107

row,Sequence,PBM 8-mer E-score
1,ATTAGACA,0.162
2,ACGGAGAT,0.0295
3,AGCCGATG,-0.193
4,AAATTAAC,0.27
5,AGGTACTG,-0.174
6,GGGACCAC,-0.237
7,TTTCGAAA,0.256
8,ATATTGAT,0.32
9,AATCCCAA,0.136
10,ATCAAACA,0.113
11,CCTCGTTC,-0.185
12,TATTACGA,0.343
13,ACTGGCAT,0.041
14,CAATTATG,0.329
15,ACGCATAT,0.154
16,CACACCTA,0.0249
17,CGGGGCCA,-0.2
18,GATTAATC,0.317
19,CTATTGAG,-0.189
20,AGCGTTCC,-0.129
21,CATCCTCG,-0.327
22,ATATGCAA,0.271
23,ATATTATG,0.411
24,GTCGCTAA,-0.0359
25,ACTTAATG,0.287

row,Sequence,PBM 8-mer E-score
1,CTGGTCCC,-0.274
2,CCAACGAG,-0.17
3,AACTATTA,0.399
4,AAGTGGTA,0.0484
5,ATTTTTGA,0.233
6,ACCGAGGG,-0.223
7,AGGGCTCG,-0.319
8,CCTCACCA,0.0682
9,AAGAAATG,-0.0324
10,AGCGCGGC,-0.159
11,CGGGTAAA,0.104
12,CCCGGGTC,-0.349
13,CGATTAAA,0.218
14,GATCTGAC,-0.0641
15,ATTTGGTA,0.144
16,CTACTCTA,-0.0151
17,AAGACTAT,0.138
18,AAGATTCA,0.116
19,GACACAGA,-0.0831
20,CAGCCTAA,-0.154
21,AAGGGACT,-0.176
22,CAACACGG,-0.147
23,CTTCGCGC,-0.124
24,CTCCTCGA,-0.177
25,ACGGACAC,-0.107

row,Sequence,PBM 8-mer E-score
1,CCGCTCAG,-0.246
2,CCATCGAG,-0.252
3,CCAACTAC,0.0254
4,AGCCATAT,0.114
5,ATCGTGCA,0.0478
6,ATCGAGAC,-0.108
7,CCAAGGAG,-0.212
8,CGTGTGAA,-0.0347
9,GCGATCTA,-0.117
10,CAGGTTCA,-0.0132
11,CTGGACTA,-0.0316
12,GATCCAGA,-0.116
13,CAGCGATA,0.0749
14,AGATAATC,0.136
15,ACGTACTC,-0.0465
16,CCCTATAA,0.184
17,TCCATAAA,0.0562
18,CGATCCTC,-0.182
19,CTCTGGTC,-0.191
20,AAGGCAGA,-0.266
21,GTCTCCAC,-0.12
22,AATGGTTA,0.177
